This note sets out measurements from article PMC6919601, “Identification of Plasmodium dipeptidyl aminopeptidase allosteric inhibitors by high throughput screening” (PLoS ONE, 2019).

The whole screen tested about 110,000 compounds, of which about 230 (0.21%) showed an effect of 50% or more. The list shows a part of the results.
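Also: 30 min substrate incubation versus DMSO and 10 µM JCP410 controls.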

The target in this assay is DPAP1 (Plasmodium falciparum, UniProt Q8IIJ9). The experiment in a line: primary screen, percent inhibition; read by cleavage of a fluorogenic dipeptide substrate; higher = more effect of the substance. More on the design: species or system P. falciparum D10 trophozoite lysates; single well.
Sequence of DPAP1 (Q8IIJ9 whole entry, looked up): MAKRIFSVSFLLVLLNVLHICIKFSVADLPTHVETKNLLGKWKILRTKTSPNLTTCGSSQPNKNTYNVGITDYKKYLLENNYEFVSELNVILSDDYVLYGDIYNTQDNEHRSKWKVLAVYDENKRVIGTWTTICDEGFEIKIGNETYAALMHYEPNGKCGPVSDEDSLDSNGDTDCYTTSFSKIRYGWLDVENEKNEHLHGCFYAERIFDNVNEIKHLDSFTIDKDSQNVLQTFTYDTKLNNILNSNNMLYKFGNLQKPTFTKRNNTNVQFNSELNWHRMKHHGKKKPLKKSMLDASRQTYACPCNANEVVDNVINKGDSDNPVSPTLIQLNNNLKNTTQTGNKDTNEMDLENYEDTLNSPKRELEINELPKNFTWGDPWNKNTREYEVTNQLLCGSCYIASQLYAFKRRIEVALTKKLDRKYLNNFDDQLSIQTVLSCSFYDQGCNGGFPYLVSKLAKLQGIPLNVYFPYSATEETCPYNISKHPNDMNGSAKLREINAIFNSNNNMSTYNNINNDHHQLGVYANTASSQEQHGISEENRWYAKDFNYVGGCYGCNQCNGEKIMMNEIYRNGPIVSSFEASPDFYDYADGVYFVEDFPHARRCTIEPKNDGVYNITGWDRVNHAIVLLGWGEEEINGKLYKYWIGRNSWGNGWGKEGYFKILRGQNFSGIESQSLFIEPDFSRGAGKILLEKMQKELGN
As to `C=C(C)CC1(NC(C)c2ccccc2)CCCCC1` (stereo not drawn), the “% Inhibition @ 10 uM” value came to 3.16%.

On to `CC1CCc2c(C(=O)NCc3ccco3)csc2C1` (stereo not drawn), for which the “% Inhibition @ 10 uM” value was found to be 3.54%.

As to `Cc1cc2c(n1-c1ccc(C(=O)N3CCC4(CC3)OCCO4)cc1)CCC(C)C2` (stereo not drawn), the “% Inhibition @ 10 uM” value is given as -5.88%.

On to `COC(=O)CCS(=O)(=O)c1ccc(C)cc1`, for which the “% Inhibition @ 10 uM” value is 4.82%.

As for `O=C(c1cnn2c1NC(c1ccccc1)CC2C(F)(F)F)N1CCN(Cc2ccccc2)CC1` (stereo not drawn), the “% Inhibition @ 10 uM” value stood at 2.23%.

For `O=C(COCc1cc(-c2ccc(F)cc2)on1)NCC1CCCO1` (stereo not drawn), the “% Inhibition @ 10 uM” value was determined as 0.44%.

Regarding `COc1cc2nc(NCCC(C)C)n3nc(-c4cccnc4)nc3c2cc1OC`, the “% Inhibition @ 10 uM” value is on record as -0.905%.

In the case of `CCC1CCC(N(CC)CCN(CC)CC)CC1` (stereo not drawn), the “% Inhibition @ 10 uM” value is on record as -4.04%.

Consider `COc1ccc(-c2cc(C(=O)N3CCN(C)CC3)no2)cc1`, for which the “% Inhibition @ 10 uM” value was determined as 0.723%.

Regarding `CC(C)C[C@H](N[C@H](C(=O)N1CCOCC1)c1ccc(-c2ccc(S(C)(=O)=O)cc2)cc1)C(=O)NCC#N`, the “% Inhibition @ 10 uM” value was -6.46%.

`CCN(CCCNC(=O)C1CCCN(c2ncnc3c2nc2n3CCCCC2)C1)Cc1ccccc1` (stereo not drawn): the “% Inhibition @ 10 uM” value turned out to be 2.1%.

As for `O=C(O)c1cc(-c2ccco2)nc2ccccc12`, the “% Inhibition @ 10 uM” value was determined as 4.75%.

Take `CCOC(=O)N1CCC(NC(=O)Nc2cn(C)c(=O)c3ccccc23)CC1`: the “% Inhibition @ 10 uM” value is -2.14%.

Regarding `COc1ccc2c(c1)CCc1c(C(=O)Nc3cnn(Cc4ccccc4C)c3)noc1-2`, the “% Inhibition @ 10 uM” value is -0.591%.

With `Cc1ccc(CNC(=O)NC(C)c2c(-n3cccc3)sc3c2CCN(C)C3)cc1` (stereo not drawn), the “% Inhibition @ 10 uM” value is given as -1.68%.

In the case of `CCOc1ccc(C2C(C#N)=C(N)OC3=C2C(=O)CC(C)(C)C3)c(OCC)c1` (stereo not drawn), the “% Inhibition @ 10 uM” value is listed as -1.07%.

As to `CC(CCc1ccccc1)N(C)CCN(C)C` (stereo not drawn), the “% Inhibition @ 10 uM” value is -1.56%.

With `COc1ccc(C2N(C(C)=O)CCCN2S(=O)(=O)c2ccc(C)cc2)cc1` (stereo not drawn), the “% Inhibition @ 10 uM” value is -7.15%.

For the compound `C=CCOc1c(Br)cc(C2C(C#N)=C(N)OC3=C2C(=O)CC(C)(C)C3)cc1OC` (stereo not drawn), the “% Inhibition @ 10 uM” value turned out to be 0.722%.

With `CC(CNC(=O)CCc1nnc2n(CCc3ccccc3)c(=O)c3ccccc3n12)c1ccccc1` (stereo not drawn), the “% Inhibition @ 10 uM” value is 4.16%.

With `O=C(O)c1cc2n(n1)C(C(F)(F)F)CC(c1ccc(F)cc1)N2` (stereo not drawn), the “% Inhibition @ 10 uM” value is reported as 4.61%.

Turning to `COc1cccc(C2=N/C(=C\c3ccc(C)o3)C(=O)O2)c1`, the “% Inhibition @ 10 uM” value is -2.78%.

`O=C(COc1ccccc1Cl)Nc1sc2c(c1C(=O)O)CCCC2`: the “% Inhibition @ 10 uM” value came out at 4.19%.

In the case of `Cc1cc(C)cc(NC(=O)c2ccc(Cn3nc(C)c(Cl)c3C)o2)c1`, the “% Inhibition @ 10 uM” value is -1.06%.

For the compound `Cc1ccc(S(=O)(=O)N(CC(=O)NC(C)C)c2ccccc2Cl)cc1`, the “% Inhibition @ 10 uM” value is -1.24%.

For `Fc1ccccc1OCCOCCN1CCCC1`, the “% Inhibition @ 10 uM” value is listed as -1.82%.

For the compound `CCc1ccc(C2CC(=O)N=C(N)N2)cc1` (stereo not drawn), the “% Inhibition @ 10 uM” value is reported as -3.3%.

For the compound `COc1ccc(CCNC(=O)c2cc3oc4ccccc4c3n2C)cc1OC`, the “% Inhibition @ 10 uM” value is recorded as 3%.

For the compound `N#Cc1ccc(/C=C2/SC(=O)NC2=O)cc1`, the “% Inhibition @ 10 uM” value was found to be 7.5%.

On to `CC(=O)CC(C)(C)S(=O)(=O)c1ccc(Cl)cc1`, for which the “% Inhibition @ 10 uM” value was -2.03%.

Consider `Cc1ccc(NC(=O)CN2C(=O)N/C(=C/c3ccc(C)o3)C2=O)cc1`, for which the “% Inhibition @ 10 uM” value is listed as -2.98%.

With `CC1=C(C(=O)Nc2ccc(C)cn2)C(c2ccccc2)C2=C(O)CC(C)(C)CC2=N1` (stereo not drawn), the “% Inhibition @ 10 uM” value was -2.87%.

As to `O=C(OCC(c1ccccc1)c1ccccc1)c1cccnc1`, the “% Inhibition @ 10 uM” value is -1.98%.

As to `COc1ccc(/C=C2\N=C(c3ccccc3C)OC2=O)c(OC)c1`, the “% Inhibition @ 10 uM” value is listed as -2.6%.

As for `CCCNC(=O)CCc1c(C)nc2nc(-c3ccc(Cl)cc3Cl)nn2c1C`, the “% Inhibition @ 10 uM” value came to 4.14%.

In the case of `CCC(C(=O)NCc1ccccn1)n1ncn2c(cc3occc32)c1=O` (stereo not drawn), the “% Inhibition @ 10 uM” value is given as -5.63%.

Consider `NC(=O)c1c(NC(=O)CN2CCOCC2)sc2c1CCCC2`, for which the “% Inhibition @ 10 uM” value is listed as -3.92%.

As to `COc1cccc(C2NC(c3cccc(OC)c3O)C(C)C(=O)C2C)c1O` (stereo not drawn), the “% Inhibition @ 10 uM” value was 3.94%.

In the case of `Cc1cc(C)c2c(-n3cccc3)c(C(=O)NC3CCC(C)CC3)sc2n1` (stereo not drawn), the “% Inhibition @ 10 uM” value is 0.623%.

`CCN(Cc1ccccc1)C(=O)c1cc2c(s1)-c1ccccc1S(=O)(=O)C2`: the “% Inhibition @ 10 uM” value is -2.67%.

In the case of `CCOCCCNC(=O)C1CCCN(S(=O)(=O)CC)C1` (stereo not drawn), the “% Inhibition @ 10 uM” value came out at 3.24%.

With `COc1ccc(Cl)cc1NS(=O)(=O)c1ccc(Cl)cc1`, the “% Inhibition @ 10 uM” value is given as -3.04%.

For the compound `CN(C(=O)c1cc(F)c(Cl)nc1Cl)c1ccccc1`, the “% Inhibition @ 10 uM” value was 0.907%.

On to `CCn1c(=O)c2c(nc3n2CCN3c2ccccc2)n(C)c1=O`, for which the “% Inhibition @ 10 uM” value was found to be 6.47%.

With `COc1ccc(/N=c2\scc(-c3ccc(OC)cc3F)n2CCO)cc1`, the “% Inhibition @ 10 uM” value is recorded as -4.39%.

As for `CN(CC(=O)Nc1ccccc1F)S(=O)(=O)c1cc(Cl)ccc1Cl`, the “% Inhibition @ 10 uM” value is 2.6%.

With `Cc1[nH]c2ccccc2c1CCNC(=O)CCC(=O)c1ccccc1`, the “% Inhibition @ 10 uM” value is -2.5%.

As to `O=C(c1cnn2ccccc12)N1CCN(C(c2ccccc2)c2ccccc2)CC1`, the “% Inhibition @ 10 uM” value was -3.14%.

`Cc1nn(CC(=O)NC2CCCc3ccccc32)c(=O)c2cccn12` (stereo not drawn): the “% Inhibition @ 10 uM” value is given as 0.0811%.

For `CCOC(=O)C(CN(C)C)Oc1ccc(Cl)cc1` (stereo not drawn), the “% Inhibition @ 10 uM” value was -4.26%.

Turning to `COc1ccc(OC)c(C2=NOC(C(=O)NCc3ccco3)C2)c1` (stereo not drawn), the “% Inhibition @ 10 uM” value is -6.03%.
